# Test results as given in PubChem BioAssay AID1671193 (National Center for Advancing Translational Sciences (NCATS), 2021).
# Among all 150,000 compounds or so, about 180 (0.12%) were called active. The inconclusive results got no clear call from the source; some entries with a clear call stand among them for comparison. The call rests on the fitted dose curve; in most records, active means well fitted cell-killing curve with a large enough effect; inconclusive means small, poorly fitted or top-dose-only effect, or effect the other way; inactive means flat fitted curve, though single readings scatter. Potencies beside an inconclusive call are fits to weak or partial responses and may not hold up.
# Assay: GF-AFC viability counterscreen for inhibitors of alpha-synuclein gene (SNCA) expression; further: nearly all actives have a fitted effect of over 30% in size;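 on activity change, negative = cytotoxicity: 0% = DMSO-treated cells and -100% = medium-only wells without cells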
# Conditions: HEK-293-SNCA-luc viability, GF-AFC fluorescence, 24 h; activity change, negative = cytotoxicity: at 57.1 µM (top of the series) unless noted
# Outline: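 HEK-293-SNCA-luc cells (1500/well) plated 24 h, then exposed 24 h to a dilution series; GF-AFC added 30 min at 37C, fluorescence 405/540 nm; normalised to medium-only and DMSO wells, Hill fit.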
# Potency means the concentration at half of the fitted maximal effect; tags describe the fitted curve by direction and shape.
Compound,"activity change, negative = cytotoxicity",Potency
Cc1ccc(-c2noc(-c3nc(C4CC4)no3)n2)cc1,inactive: -6.03%,
CCCOc1ccc(CNC(=O)[C@@]23CCCC[C@H]2N(C)C(=O)CC3)cc1,inactive: 0.506%,
O=C(c1csc2nc(-c3cccc(C(F)(F)F)c3)cn12)N1CCN2CCCC2C1 (configuration not stated),,"inconclusive: 39.8 µM [cytotoxic, single point]"
COc1ccccc1C(=O)Nc1cc(C2CCCC2)nn1C,inactive: 7.33% [at 87.6 µM],
O=C(Nc1ccc([C@H]2OCC(=O)N(Cc3ccccc3)[C@@H]2CO)cc1)c1ccc2c(c1)OCO2,inactive: 0.872%,
CCc1ccc(NC(=O)N(Cc2cn(CC)c3ccccc23)C2CCCCC2)cc1,,"inconclusive: 39.8 µM [cytotoxic, single point]"
CC(C)c1ccc(NC(=O)C(NS(=O)(=O)c2ccc3c(c2)CCC(=O)N3)c2ccccc2)cc1 (configuration not stated),,"inconclusive: 25.1 µM [cytotoxic, partial curve, poor fit]"
CCOCN(C(=O)Cn1c(CC(C)C)nc2ccccc21)c1c(C)cccc1CC,,"inconclusive: 28.2 µM [cytotoxic, single point]"
Cc1ccc(CNC(=O)c2nc(S(=O)(=O)Cc3ccc(C)cc3)ncc2Cl)cc1,inactive: 0.583%,
O=c1cnc2cncnc2n1Cc1ccccc1,,"inconclusive: 10 µM [cytotoxic, partial curve, poor fit]"
CN(C)c1ccc(-c2nnnn2[C@H]2CO[C@H]3[C@@H]2OC[C@@H]3NC(=O)Nc2ccc(Oc3ccccc3)cc2)cc1,inactive: -7.53%,
CC1CCN(S(=O)(=O)c2ccc3nc(Nc4cccc(C(F)(F)F)c4)ccc3c2)CC1,,"inconclusive: 39.8 µM [cytotoxic, single point]"
COc1cccc(-c2nc(SCC(=O)NC3CCCC3)c(-c3ccc(F)cc3)[nH]2)c1,,"inconclusive: 35.5 µM [cytotoxic, single point]"
CC[C@@]1(O)CCN(C(=O)CCc2nc(-c3ccncc3)no2)C[C@H]1O,,"inconclusive: 2.24 µM [cytotoxic, full curve, poor fit]"
O=C(c1cccc2[nH]ccc12)N1CCC2(CC1)N=C(c1cccc(Br)c1)NO2,,"inconclusive: 5.62 µM [cytotoxic, partial curve, poor fit]"
C=CCNc1nc(CC)nc2c1CCN(C(=O)c1cn(C)nc1C)CC2,,"inconclusive: 14.1 µM [cytotoxic, partial curve, poor fit]"
CCOc1ccc(/C=C/c2nc3ccccc3n2S(=O)(=O)c2cccc(Cl)c2)cc1,inactive: -10.3%,
Cc1cccc(NC(=O)Cn2c(N3CCN(c4ccccc4)CC3)nc(C)cc2=O)c1,inactive: 3.14%,
O=C(Nc1cccnc1)c1ccnc(-c2nnc3ccc(Nc4ccccc4)nn23)c1,inactive: -15.4% [at 87.6 µM],
COc1ccccc1C(=O)NC1CCCN(c2cc(-c3ccc(F)cc3)[nH]n2)C1 (configuration not stated),inactive: -33.2%,
O=C(Nc1nnc2n1CCS2)c1ccccc1,inactive: -3.83%,
COC(=O)c1ccc2c(=O)n(CCCCCC(=O)NC(C)C)c(=O)[nH]c2c1,,"inconclusive: 39.8 µM [cytotoxic, single point]"
C=C1C(=O)O[C@@H]2/C=C(\C)CC/C=C(/C=O)[C@H](OC)[C@@H](OC(=O)C(C)C)[C@@H]12,,"inconclusive: 23.3 µM [cytotoxic, single point]"

Compound,"activity change, negative = cytotoxicity",Potency
CC(=O)Nc1ccc(S(=O)(=O)N[C@H]2CO[C@H]3[C@@H]2OC[C@@H]3n2nnnc2Oc2ccc3c(c2)OCO3)cc1,inactive: 0.46%,
COc1ccc(OC)c(NC(=O)Cn2cc(C(=O)c3cccs3)c3ccccc32)c1,,"inconclusive: 8.91 µM [cytotoxic, full curve, poor fit]"
CC(=O)O[C@@](C)(C(=O)/C=C/C(C)(C)O)[C@H]1[C@H](O)C[C@@]2(C)[C@@H]3CC=C4[C@@H](C=C(O)C(=O)C4(C)C)[C@]3(C)C(=O)C[C@]12C,,"inconclusive: 3.27 µM [cytotoxic, partial curve, poor fit]"
COc1ccc(CN2C(=O)COC[C@@H]2[C@H](O)c2ccc(NC(=O)c3ccc(C(C)(C)C)cc3)cc2)cc1,,"inconclusive: 35.5 µM [cytotoxic, single point]"
COc1cccc(-c2noc(CCCc3nc(-c4cccnn4)no3)n2)c1,inactive: -0.84%,
Cc1ccc(C(=O)NC[C@H]2O[C@@H](CC(=O)N3CCN(c4ccccn4)CC3)[C@H](O)[C@@H]2O)cc1,inactive: -6.08%,
COc1ccc(-n2c(=O)c(-c3cccs3)nc3cnc(N4CCOCC4)nc32)cc1,,"inconclusive: 7.08 µM [rising, full curve, poor fit]"
Cc1cnc(CCNS(=O)(=O)c2cn(C)cn2)n1CC1CC1,,"inconclusive: 39.8 µM [cytotoxic, single point]"
O=C(Cc1ccc(N(Cc2cccc(F)c2)C(=O)c2ccco2)cc1)NCc1ccco1,inactive: 6.56%,
COc1cccc(/C=C(\C#N)c2nc3ccc(C)cc3[nH]2)c1,,"inconclusive: 25.1 µM [rising, single point]"
CN(C)CCNC(=O)c1nc(-c2ccc(N3CCN(C)CC3)cc2)cc2c1ccn2C,,"inconclusive: 25.1 µM [cytotoxic, partial curve, poor fit]"
c1cc(-c2ccc3c(c2)OCCCO3)n2nc(C3CCC3)nc2n1,inactive: 1.25%,
COCC1CN(C(C)=O)CC12CCN(C(=O)COc1cccc(C)c1)CC2 (configuration not stated),,"inconclusive: 10 µM [rising, partial curve, poor fit]"
CCOC(=O)c1c(C)[nH]c(CCC(=O)Nc2ccc(N(CC)CC)cc2C)c1C,,"inconclusive: 39.8 µM [rising, single point]"
CC1(CO)CCCC2(C)C1C(OC(=O)c1ccccc1)C=C1C(=O)OCC12O (configuration not stated),,"inconclusive: 26.1 µM [cytotoxic, single point]"
COc1ccc(CN2CCOc3nc(-c4cccc(NC(C)=O)c4)ncc3C2=O)cc1,inactive: -1.58% [at 87.6 µM],
CN1C(=O)c2cccn2CC1CNC(=O)c1ccc2ccccc2n1 (configuration not stated),inactive: -10%,
CN1C(=O)CS(=O)(=O)C12CCN(C(=O)c1cc(F)ccc1F)CC2,,"inconclusive: 4.47 µM [cytotoxic, single point]"
COc1ccc(CN2CCCC(COc3ccccc3C(=O)NC(C)C)C2)c(OC)c1 (configuration not stated),inactive: -8.87%,
CC1=C[C@@H](CNS(=O)(=O)c2ccc(Cl)cc2)[C@H](C(C)C)C[C@H]1CC(=O)N1CCOCC1,,"inconclusive: 25.1 µM [cytotoxic, partial curve, poor fit]"
CN1c2cc(C(=O)Nc3cccc(F)c3)ccc2C(=O)N2CCCCCC21 (configuration not stated),inactive: 8.18% [at 12.5 µM],
CC(=O)Nc1cccc(-c2ccc3c(n2)CN(Cc2ccccc2C)C(=O)CO3)c1,,"inconclusive: 25.1 µM [cytotoxic, partial curve, poor fit]"
COc1cccc(-c2cn3cc(C(=O)NCC4CCCCC4)nc3s2)c1,inactive: 6.15%,

Compound,"activity change, negative = cytotoxicity",Potency
CCOCCCNC(=O)C(c1ccc(Cl)cc1)N(Cc1ccc2c(c1)OCO2)C(=O)c1ccccc1O (configuration not stated),,"inconclusive: 17.8 µM [cytotoxic, single point]"
CCc1noc(-c2ccn3c(CNC(=O)Cc4ccccc4Cl)nnc3c2)n1,inactive: 1.59%,
COc1ccc2[nH]c3c(c2c1)CCNC31CCN(C(=O)C2CC=CC2)CC1,inactive: -6.9% [at 12.5 µM],
CCOC(=O)C1=C(CN2CCN(c3cc(C)ccc3C)CC2)NC(=O)NC1c1ccccc1 (configuration not stated),,"inconclusive: 2.24 µM [cytotoxic, full curve, poor fit]"
Cc1nn(CC(=O)NCc2cccc(F)c2)c(=O)c2c(C)n(-c3ccc(Cl)cc3)nc12,,"inconclusive: 44.7 µM [cytotoxic, single point]"
Cc1cc2c(-c3ccccc3)nc(-c3c(C)noc3C)cc2[nH]1,inactive: -3.06% [at 87.6 µM],
CC(C)CCN1CCn2c(nnc2-c2cccnc2)C1,,"inconclusive: 56.2 µM [cytotoxic, single point]"
CC(C)S(=O)(=O)NCC1CN(CC2CC2)CC12CCCCC2 (configuration not stated),inactive: -13%,
COc1cccc(CNC(=O)CCc2nc(-c3ccc(C)cc3)no2)c1,,"inconclusive: 25.1 µM [rising, single point]"
COc1cccc(Cn2c(=O)c(-c3ccccc3)nc3cnc(N4CCNCC4)nc32)c1,,"inconclusive: 11.2 µM [rising, partial curve]"
Cc1ccc2c(C(=O)N3CCN(c4ccc(F)cc4)CC3)cc(NC(=O)C(C)C)cc2n1,inactive: 15.6%,
Cc1cc(Nc2cc(Cl)ccc2C)n2nc(Cc3ccccc3)nc2n1,,"inconclusive: 10 µM [rising, partial curve, poor fit]"
CCCN(C(=O)Cn1c(=O)oc2cc(Cl)ccc21)c1ccc(C(C)C)cc1,,"inconclusive: 39.8 µM [cytotoxic, single point]"
O=C1NCCCCCN(S(=O)(=O)c2ccc3c(c2)CCC3)[C@H]2CCCC[C@@H]12,inactive: -24%,
COc1ccccc1Nc1ccnc(N2CCCC(C(=O)N3CCCCC3)C2)n1 (configuration not stated),,"inconclusive: 3.98 µM [cytotoxic, single point]"
Cc1cccc(NC(=O)C2CCCN(c3nnc(-n4c(C)ccc4C)s3)C2)c1C (configuration not stated),,"inconclusive: 15.8 µM [cytotoxic, single point]"
C=CCS(=O)(=O)N1CCCC(CCc2cccc(OC)c2)C1 (configuration not stated),inactive: 0.739%,
COC1CN(c2cccc(F)c2)C12CCN(C(=O)CC(C)C)CC2 (configuration not stated),inactive: 2.45%,
O=C(c1ccc(Nc2nccc(-c3cc4ccccc4s3)n2)cc1)N1CCC(N2CCCC2)CC1,,"inconclusive: 19.2 µM [cytotoxic, partial curve]"
CCS(=O)(=O)c1oc(-c2ccc(F)cc2)nc1S(=O)(=O)c1ccccc1,,active: 7.94 µM
CCCCN(CC)C(=O)c1nn(-c2ccc(OC)cc2)c(=O)c2c1c1ccccc1n2C,,"inconclusive: 7.94 µM [cytotoxic, partial curve]"
